The campaign covered roughly 50,000 compounds. About 800 (1.6%) showed an effect of 50% or more. Some of the results follow.

The assay addresses Bcl-2-like protein 10 (Homo sapiens) (UniProt Q9HD36). The experiment in a line: TR3 peptide-Bcl-B binding displacers, biochemical primary FP assay, phenotype converters (AID 1240).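 Also: 0% = Bcl-B with tracer peptide and DMSO and 100% = tracer peptide lacking Bcl-B.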 As to conditions: GST-Bcl-B / FITC-TR3 peptide fluorescence polarization; stronger effect = higher value; compound at 3.75 mg/L. (In general: Fluorescence polarisation rises when a labelled molecule tumbles more slowly, as on binding a larger partner.)
Sequence of UniProt Q9HD36 (Q9HD36 whole entry, looked up): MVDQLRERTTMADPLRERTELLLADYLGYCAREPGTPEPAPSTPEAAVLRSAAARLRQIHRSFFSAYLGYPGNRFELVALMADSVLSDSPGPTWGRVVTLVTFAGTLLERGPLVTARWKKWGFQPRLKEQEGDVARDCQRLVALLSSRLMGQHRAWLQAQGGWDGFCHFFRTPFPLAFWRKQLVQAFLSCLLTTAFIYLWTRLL
Turning to `Cc1cc(Cl)ccc1OCC(=O)N1CCOCC1`, the displacement is -8.7%.

Turning to `Clc1ccc(Nc2nc(N/N=C\c3cccnc3)nc(N3CCOCC3)n2)cc1`, the displacement turned out to be 29.8%.

Regarding `CCC(C(=O)Nc1cc([N+](=O)[O-])ccc1OC)c1ccccc1` (configuration not stated), the displacement turned out to be 5.6%.

For the molecule `Cc1ccc2c(Cl)c(C(=O)O)sc2c1`, the displacement amounted to 0.8%.

Regarding `Cc1ccc(C(=O)N2CCN(C)CC2)cc1`, the displacement is -7.7%.

`CC(C)(C)C(=O)Oc1ccc2c(=O)c(Oc3ccccc3Br)coc2c1`: the displacement came to 7.3%.

Regarding `O=C(O)CN(c1ccccc1)S(=O)(=O)c1ccccc1[N+](=O)[O-]`, the displacement worked out at 4.7%.

Consider `O=C(Nc1ccccc1)Nc1nnc(-c2cccc(Br)c2)s1`, for which the displacement worked out at 11.9%.

With `COc1ccccc1N1CCN(C(=S)Nc2ccc(F)cc2)CC1`, the displacement was -0.4%.

In the case of `Cc1cc(-c2ccc(F)cc2)nc2cc(C(=O)O)nn12`, the displacement stood at 1.6%.

Consider `CC(=O)O/N=C(N)/C(=N/OC(C)=O)c1nc2ccccc2[nH]1`, for which the displacement is -10.3%.

In the case of `COc1ccc(/C(N)=N/OC(=O)c2ccccc2I)cc1OC`, the displacement amounted to 10.9%.

On to `CC12C=CC(O1)C1C(=O)N(c3ccccc3)C(=O)C12` (configuration not stated), for which the displacement stood at 7.6%.

On to `O=C(Nc1ccc(S(=O)(=O)N2CCCCCC2)cc1)c1ccc(F)cc1`, for which the displacement worked out at 1.3%.

In the case of `COc1ccccc1N(CC(=O)Nc1cccc(C)c1C)S(=O)(=O)c1ccccc1`, the displacement is 5.7%.

With `N#Cc1cc2c(nc1SCC(=O)Nc1ccc(S(N)(=O)=O)cc1)CCC2`, the displacement was -45.2%.

With `C(=Nc1ccccc1-c1nc2ccccc2[nH]1)c1ccco1`, the displacement stood at 9.8%.

Consider `Cc1cc(=O)[nH]c(SCC(=O)Nc2ccccc2Br)n1`, for which the displacement worked out at 6.6%.

With `C/C(=C\c1ccccc1F)C(=O)c1c(C)cc(C)[nH]c1=O`, the displacement was 4.5%.

In the case of `Cc1ccc(/C=C/C(=O)Nc2nc(-c3ccccc3)c(C)s2)cc1`, the displacement is -2.3%.

For `CC(C)=CCC/C(C)=C/C1OCCCO1`, the displacement is -10.4%.

As to `O=[N+]([O-])c1ccc(-c2noc(CCc3ccccc3)n2)cc1`, the displacement amounted to 10.1%.

`COc1ccc(N=Cc2ccc(N3Cc4cc(C)c(C)cc4C3)cc2)cc1`: the displacement was 3.1%.

As to `COc1ccc(N(CC(=O)Nc2ccc(I)cc2)S(C)(=O)=O)cc1Cl`, the displacement is 6.5%.

`CCCC(=O)Nc1ccc(NC(=O)c2cccc([N+](=O)[O-])c2)cc1`: the displacement came out at 12.7%.

On to `Nc1nonc1C(=O)NCCNc1ccc([N+](=O)[O-])cc1Cl`, for which the displacement is 1.6%.

`Cc1cc(OCC(=O)NCc2ccco2)ccc1Br`: the displacement came out at 1.6%.

For the molecule `COc1cc(C=O)cc(Br)c1OCCOc1ccc(C)c(C)c1`, the displacement is -9.4%.

Take `O=C(NCCc1ccc(Cl)cc1)C1CC(=O)N(c2ccc(Br)cc2)C1` (configuration not stated): the displacement is 9.4%.

Turning to `Cc1ccccc1Cn1c(NC(=O)c2ccc(Cl)cc2)nc2ccccc21`, the displacement came out at 8.8%.

For the molecule `Cn1c(SCC(=O)Nc2ccccc2)nc2ccccc21`, the displacement is -6.6%.

Regarding `Cc1ccc(S(=O)(=O)N/N=C/c2cc(Cl)cc(Cl)c2O)cc1`, the displacement was found to be 1.7%.

(Values after PubChem BioAssay AID1240 (Sanford-Burnham Center for Chemical Genomics, 2008).)
